The name of at least one read-out is uncertain.
Key:
Format in all cases: cell-based
[1] = system: penicillin-, erythromycin- and tetracycline-resistant Streptococcus pneumoniae (ATCC 700677), ARSP; conditions: Table BB; MIC score
[2] = system: Streptococcus pneumoniae (Chester, ATCC49619); test: Broth microdilution MIC assay, Streptococcus pneumoniae; conditions: MIC score; for Antibacterial activity Streptococcus pneumoniae: Table AA; for antibacterial activity SP: Table BB
[3] = system: Staphylococcus aureus MSSA (Newman); test: Broth microdilution MIC assay, MSSA; conditions: MIC score; for Antibacterial activity Staphylococcus aureus (MSSA): Table AA; for antibacterial activity MSSA: Table BB
[4] = system: Staphylococcus aureus MRSA (COL); conditions: MIC score; for Antibacterial activity Staphylococcus aureus (MRSA): Table AA; for antibacterial activity MRSA: Table BB
[5] = system: Staphylococcus epidermidis (PCI 1200, ATCC12228); test: Broth microdilution MIC assay, Staphylococcus epidermidis; conditions: Table BB; MIC score

In the case of `Cc1nc(-c2ccc(-c3ccccc3C(F)(F)F)o2)[nH]c1-c1ccccc1Cl` [Compound 20], the “antibacterial activity ARSP” value [1] is reported as 3 (the compound has an MIC100 of 2-5 μg/ml), the “Antibacterial activity Streptococcus pneumoniae” value [2] is reported as 4 (the compound has an MIC of 1 μg/ml or less for preventing streptococcal growth 100% (MIC100)) and the “antibacterial activity SP” value [2] is reported as 4 (the compound has an MIC of 1 μg/ml or less for preventing streptococcal growth 100% (MIC100)). For the same compound, the “Antibacterial activity Staphylococcus aureus (MSSA)” value [3] was 1 (the compound has an MIC100 of 20-50 μg/ml or an MIC50 of <10 μg/ml) and the “antibacterial activity MSSA” value [3] was 1 (the compound has an MIC100 of 20-50 μg/ml or an MIC50 of <10 μg/ml).

`Cc1[nH]c(-c2ccc(-c3ccccc3C(F)(F)F)o2)nc1-c1cccc(Cl)c1` [Compound 22] was tested, and the “Antibacterial activity Streptococcus pneumoniae” value [2] was 3 (the compound has an MIC100 of 2-5 μg/ml), the “antibacterial activity SP” value [2] was 3 (the compound has an MIC100 of 2-5 μg/ml) and the “Antibacterial activity Staphylococcus aureus (MSSA)” value [3] was 2 (the compound has an MIC100 of 11-20 μg/ml). The “antibacterial activity MSSA” value [3] was 2 (the compound has an MIC100 of 11-20 μg/ml).

For `Cc1[nH]c(-c2ccc(-c3ccccc3OC(F)(F)F)o2)nc1-c1ccc(C(F)(F)F)cc1` [Compound 26], the “antibacterial activity ARSP” value [1] was 2 (the compound has an MIC100 of 6-10 μg/ml), the “Antibacterial activity Streptococcus pneumoniae” value [2] was 3 (the compound has an MIC100 of 2-5 μg/ml) and the “antibacterial activity SP” value [2] was 3 (the compound has an MIC100 of 2-5 μg/ml).

With `CCc1ccc(-c2[nH]c(-c3ccc(-c4ccccc4C(F)(F)F)o3)nc2C)cc1` [Compound 28] the “Antibacterial activity Streptococcus pneumoniae” value [2] was 3 (the compound has an MIC100 of 2-5 μg/ml), the “antibacterial activity SP” value [2] was 3 (the compound has an MIC100 of 2-5 μg/ml) and the “Antibacterial activity Staphylococcus aureus (MSSA)” value [3] was 1 (the compound has an MIC100 of 20-50 μg/ml or an MIC50 of <10 μg/ml). For the same compound, the “antibacterial activity MSSA” value [3] was 1 (the compound has an MIC100 of 20-50 μg/ml or an MIC50 of <10 μg/ml), the “Antibacterial activity Staphylococcus aureus (MRSA)” value [4] was 1 (the compound has an MIC100 of 20-50 μg/ml or an MIC50 of <10 μg/ml) and the “antibacterial activity MRSA” value [4] was 1 (the compound has an MIC100 of 20-50 μg/ml or an MIC50 of <10 μg/ml).

`Cc1nc(-c2ccc(-c3ccccc3OC(F)(F)F)o2)[nH]c1-c1ccc(Br)cc1` [Compound 29] was tested, and the “Antibacterial activity Streptococcus pneumoniae” value [2] was 3 (the compound has an MIC100 of 2-5 μg/ml), the “antibacterial activity SP” value [2] was 3 (the compound has an MIC100 of 2-5 μg/ml) and the “Antibacterial activity Staphylococcus aureus (MSSA)” value [3] was 3 (the compound has an MIC100 of 3-10 μg/ml). For the same compound, the “antibacterial activity MSSA” value [3] was 3 (the compound has an MIC100 of 3-10 μg/ml), the “Antibacterial activity Staphylococcus aureus (MRSA)” value [4] was 2 (the compound has an MIC100 of 11-20 μg/ml) and the “antibacterial activity MRSA” value [4] was 2 (the compound has an MIC100 of 11-20 μg/ml).

In the case of `Cc1[nH]c(-c2ccn(-c3ccccc3C(F)(F)F)c2)nc1-c1ccccc1` [Compound 33], the “antibacterial activity SE” value [5] is reported as 2 (the compound has an MIC100 of 11-20 μg/ml), the “Antibacterial activity Streptococcus pneumoniae” value [2] is reported as 2 (the compound has an MIC100 of 6-10 μg/ml) and the “antibacterial activity SP” value [2] is reported as 2 (the compound has an MIC100 of 6-10 μg/ml). The “Antibacterial activity Staphylococcus aureus (MSSA)” value [3] was 3 (the compound has an MIC100 of 3-10 μg/ml), the “antibacterial activity MSSA” value [3] was 3 (the compound has an MIC100 of 3-10 μg/ml) and the “Antibacterial activity Staphylococcus aureus (MRSA)” value [4] was 1 (the compound has an MIC100 of 20-50 μg/ml or an MIC50 of <10 μg/ml). The “antibacterial activity MRSA” value [4] was 1 (the compound has an MIC100 of 20-50 μg/ml or an MIC50 of <10 μg/ml).

For `FC(F)(F)c1ccccc1-c1ccc(-c2nc(Cl)c(-c3ccccc3)[nH]2)o1` [Compound 65], the “Antibacterial activity Streptococcus pneumoniae” value [2] was 4 (the compound has an MIC of 1 μg/ml or less for preventing streptococcal growth 100% (MIC100)), the “antibacterial activity SP” value [2] was 4 (the compound has an MIC of 1 μg/ml or less for preventing streptococcal growth 100% (MIC100)) and the “Antibacterial activity Staphylococcus aureus (MSSA)” value [3] was 2 (the compound has an MIC100 of 11-20 μg/ml). The “antibacterial activity MSSA” value [3] was 2 (the compound has an MIC100 of 11-20 μg/ml).

With `Cc1[nH]c(-c2ccc(-c3ccccc3OC(F)(F)F)o2)nc1-c1ccc(O)cc1` [Compound 76] the “Antibacterial activity Streptococcus pneumoniae” value [2] was 3 (the compound has an MIC100 of 2-5 μg/ml), the “Antibacterial activity Staphylococcus aureus (MSSA)” value [3] was 3 (the compound has an MIC100 of 3-10 μg/ml) and the “Antibacterial activity Staphylococcus aureus (MRSA)” value [4] was 4 (the compound has an MIC of 1 μg/ml to 3 μg/ml for preventing staphylococcal growth 100% (MIC100)).

`Cc1nc(-c2ccc(-c3ccccc3F)o2)[nH]c1-c1ccc(O)cc1` [Compound 77] was tested, and the “Antibacterial activity Streptococcus pneumoniae” value [2] was 3 (the compound has an MIC100 of 2-5 μg/ml), the “Antibacterial activity Staphylococcus aureus (MSSA)” value [3] was 3 (the compound has an MIC100 of 3-10 μg/ml) and the “Antibacterial activity Staphylococcus aureus (MRSA)” value [4] was 3 (the compound has an MIC100 of 3-10 μg/ml).

In the case of `Cc1nc(-c2ccc(-c3ccc(F)cc3F)o2)[nH]c1-c1ccc(O)cc1` [Compound 80], the “Antibacterial activity Streptococcus pneumoniae” value [2] is reported as 3 (the compound has an MIC100 of 2-5 μg/ml), the “Antibacterial activity Staphylococcus aureus (MSSA)” value [3] is reported as 3 (the compound has an MIC100 of 3-10 μg/ml) and the “Antibacterial activity Staphylococcus aureus (MRSA)” value [4] is reported as 2 (the compound has an MIC100 of 11-20 μg/ml).

`CCCc1[nH]c(-c2ccc(-c3ccccc3Br)o2)nc1C` [Compound 96] was tested, and the “Antibacterial activity Streptococcus pneumoniae” value [2] was 4 (the compound has an MIC of 1 μg/ml or less for preventing streptococcal growth 100% (MIC100)) and the “Antibacterial activity Staphylococcus aureus (MRSA)” value [4] was 4 (the compound has an MIC of 1 μg/ml to 3 μg/ml for preventing staphylococcal growth 100% (MIC100)).

`CCCc1[nH]c(-c2ccc(-c3ccccc3[N+](=O)[O-])o2)nc1C` [Compound 97] was tested, and the “Antibacterial activity Streptococcus pneumoniae” value [2] was 2 (the compound has an MIC100 of 6-10 μg/ml) and the “Antibacterial activity Staphylococcus aureus (MRSA)” value [4] was 2 (the compound has an MIC100 of 11-20 μg/ml).

For `CCCc1nc(-c2ccc(-c3ccccc3N(C)C)o2)[nH]c1C` [Compound 98], the “Antibacterial activity Streptococcus pneumoniae” value [2] was 4 (the compound has an MIC of 1 μg/ml or less for preventing streptococcal growth 100% (MIC100)) and the “Antibacterial activity Staphylococcus aureus (MRSA)” value [4] was 3 (the compound has an MIC100 of 3-10 μg/ml).

`CCCc1nc(-c2ccc(-c3cccc(C(F)(F)F)c3)o2)[nH]c1C` [Compound 99] was tested, and the “Antibacterial activity Streptococcus pneumoniae” value [2] was 4 (the compound has an MIC of 1 μg/ml or less for preventing streptococcal growth 100% (MIC100)) and the “Antibacterial activity Staphylococcus aureus (MRSA)” value [4] was 4 (the compound has an MIC of 1 μg/ml to 3 μg/ml for preventing staphylococcal growth 100% (MIC100)).

`CCCc1nc(-c2ccc(-c3ccccc3C)o2)[nH]c1C` [Compound 100] was tested, and the “Antibacterial activity Streptococcus pneumoniae” value [2] was 3 (the compound has an MIC100 of 2-5 μg/ml) and the “Antibacterial activity Staphylococcus aureus (MRSA)” value [4] was 2 (the compound has an MIC100 of 11-20 μg/ml).

For `CCCc1[nH]c(-c2ccc(-c3ccccc3C(F)(F)F)o2)nc1C` [Compound 101], the “Antibacterial activity Streptococcus pneumoniae” value [2] was 3 (the compound has an MIC100 of 2-5 μg/ml) and the “Antibacterial activity Staphylococcus aureus (MRSA)” value [4] was 4 (the compound has an MIC of 1 μg/ml to 3 μg/ml for preventing staphylococcal growth 100% (MIC100)).

In the case of `CCCc1nc(-c2ccc(-c3c(C)cccc3C)o2)[nH]c1C` [Compound 103], the “Antibacterial activity Streptococcus pneumoniae” value [2] is reported as 3 (the compound has an MIC100 of 2-5 μg/ml) and the “Antibacterial activity Staphylococcus aureus (MRSA)” value [4] is reported as 3 (the compound has an MIC100 of 3-10 μg/ml).

`CCCc1nc(-c2ccc(-c3ccc(C(F)(F)F)cc3)o2)[nH]c1C` [Compound 104] was tested, and the “Antibacterial activity Streptococcus pneumoniae” value [2] was 3 (the compound has an MIC100 of 2-5 μg/ml) and the “Antibacterial activity Staphylococcus aureus (MRSA)” value [4] was 3 (the compound has an MIC100 of 3-10 μg/ml).

In the case of `CCCc1[nH]c(-c2ccc(-c3cc4ccccc4o3)o2)nc1C` [Compound 106], the “Antibacterial activity Streptococcus pneumoniae” value [2] is reported as 4 (the compound has an MIC of 1 μg/ml or less for preventing streptococcal growth 100% (MIC100)) and the “Antibacterial activity Staphylococcus aureus (MRSA)” value [4] is reported as 4 (the compound has an MIC of 1 μg/ml to 3 μg/ml for preventing staphylococcal growth 100% (MIC100)).

For `CCCc1[nH]c(-c2ccc(-c3ccc(N4CCN(C)CC4)cc3)o2)nc1C` [Compound 107], the “Antibacterial activity Streptococcus pneumoniae” value [2] was 1 (the compound has an MIC100 of 11-20 μg/ml or an MIC50 of <10 μg/ml) and the “Antibacterial activity Staphylococcus aureus (MRSA)” value [4] was 1 (the compound has an MIC100 of 20-50 μg/ml or an MIC50 of <10 μg/ml).

`CCCc1[nH]c(-c2ccc(-c3cccc4[nH]ccc34)o2)nc1C` [Compound 108] was tested, and the “Antibacterial activity Streptococcus pneumoniae” value [2] was 2 (the compound has an MIC100 of 6-10 μg/ml) and the “Antibacterial activity Staphylococcus aureus (MRSA)” value [4] was 2 (the compound has an MIC100 of 11-20 μg/ml).

With `CCCc1[nH]c(-c2ccc(-c3ccc(Cl)cc3Cl)o2)nc1C` [Compound 109] the “Antibacterial activity Streptococcus pneumoniae” value [2] was 4 (the compound has an MIC of 1 μg/ml or less for preventing streptococcal growth 100% (MIC100)) and the “Antibacterial activity Staphylococcus aureus (MRSA)” value [4] was 2 (the compound has an MIC100 of 11-20 μg/ml).

With `CCCc1[nH]c(-c2ccc(-c3ccc(O)cc3C(F)(F)F)o2)nc1C` [Compound 110] the “Antibacterial activity Streptococcus pneumoniae” value [2] was 3 (the compound has an MIC100 of 2-5 μg/ml) and the “Antibacterial activity Staphylococcus aureus (MRSA)” value [4] was 3 (the compound has an MIC100 of 3-10 μg/ml).

With `CCCc1nc(-c2coc(-c3ccccc3C(F)(F)F)c2)[nH]c1C` [Compound 112] the “Antibacterial activity Streptococcus pneumoniae” value [2] was 4 (the compound has an MIC of 1 μg/ml or less for preventing streptococcal growth 100% (MIC100)) and the “Antibacterial activity Staphylococcus aureus (MRSA)” value [4] was 3 (the compound has an MIC100 of 3-10 μg/ml).

For `CCCc1nc(-c2csc(-c3ccccc3C(F)(F)F)c2)[nH]c1C` [Compound 113], the “Antibacterial activity Streptococcus pneumoniae” value [2] was 4 (the compound has an MIC of 1 μg/ml or less for preventing streptococcal growth 100% (MIC100)) and the “Antibacterial activity Staphylococcus aureus (MRSA)” value [4] was 3 (the compound has an MIC100 of 3-10 μg/ml).

For `Cc1nc(-c2cc(C)n(-c3ccccc3F)c2C)[nH]c1-c1ccccc1` [Compound 119], the “Antibacterial activity Streptococcus pneumoniae” value [2] was 1 (the compound has an MIC100 of 11-20 μg/ml or an MIC50 of <10 μg/ml) and the “Antibacterial activity Staphylococcus aureus (MRSA)” value [4] was 1 (the compound has an MIC100 of 20-50 μg/ml or an MIC50 of <10 μg/ml).

In the case of `Cc1nc(-c2ccc(-c3ccc(O)cc3F)o2)[nH]c1-c1ccc(O)cc1` [Compound 120], the “Antibacterial activity Streptococcus pneumoniae” value [2] is reported as 3 (the compound has an MIC100 of 2-5 μg/ml), the “Antibacterial activity Staphylococcus aureus (MSSA)” value [3] is reported as 2 (the compound has an MIC100 of 11-20 μg/ml) and the “Antibacterial activity Staphylococcus aureus (MRSA)” value [4] is reported as 2 (the compound has an MIC100 of 11-20 μg/ml).

Source: patent publication US10314820B2, “Imidazole-based heterocyclic compounds” (priority 2014, dated 2019)
